Source: patent US20260035452A1 (THE UNIVERSITY OF BIRMINGHAM, priority 2022, published 2026)

Legend:
[1] = test system: Human fibroblasts from RA patients; assay: IL-6 release by human fibroblasts from RA patients (Elisa); assay type: cell-based; settings: IL-17 (10 ng/ml) + TNF-α (100 U/ml), antibody 10 μg/ml 30 minutes before, 24 h
Method: (§1) Data were expressed as pg/ml and presented as means±S.D. of three separate independent experiments. Statistical analysis was conducted using analysis of variance with Bonferroni post-test for multiple comparisons. ^###P≤50.001 vs own Ctrl group; **P≤0.01 vs RA IL-17 group; ^+P≤0.05 vs Res IL-17 group.
(§2) Isolation of human fibroblasts: Synovial tissue samples were obtained by ultrasound-guided biopsy from treatment-naive patients with a new onset of clinically apparent arthritis and a symptom duration of ≤12 weeks, who at follow-up had either a resolving arthritis (Res). […] Supernatants were collected and measured to evaluate IL-6 levels.
(§3) Elisa assay: The levels of IL-6 were measured using commercially available enzyme-linked immunosorbent assay kits (ELISA kit, R&D System, Milan, Italy) according to the manufacturer instructions. […] The addition of 100 μl of the substrate and stop solution represented the last steps before the reading of absorbance (measured at 450 nm) on a microplate reader. Antigen levels in the samples were determined using a standard curve expressed as pg/ml.

[2] = test system: Human fibroblasts from Resolving patients; assay: IL-6 release by human fibroblasts from Resolving arthritis patients (Elisa); assay type: cell-based; settings: Res conditions, IL-17 + TNF-α, antibody 10 μg/ml
Method: as §1, §2, §3

[3] = molecular target: T1, IL-17A (Mus musculus, UniProt Q62386); assay: In vivo neutralisation assay, IL-17A; settings: CD-1 mice, 100 μg antibody i.p. 30 min before 10 μg IL-17A i.p., 2 h
T1 construct: purchased R&D System
T1 sequence (Q62386 26-158): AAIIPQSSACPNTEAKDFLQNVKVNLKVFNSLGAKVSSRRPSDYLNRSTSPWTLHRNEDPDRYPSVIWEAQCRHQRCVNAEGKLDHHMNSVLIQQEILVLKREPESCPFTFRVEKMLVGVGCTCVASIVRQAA
Method: (§4) To assess the neutralising activity of Ab-IPL-IL-17™, CD-1 mice were injected i.p. with 100 μg/mouse of Ab-IPL-IL-17™, MAB421 or secukinumab as positive controls. After 30 min, an i.p. injection of 10 μg/mouse of IL-17A, IL-17F or IL-17A/F heterodimer was administered. After 2 h blood was collected by intracardiac puncture and serum levels of (A) IL-17A, (B) IL-17F or (C) IL-17A/F heterodimer were quantified by Elisa. (C-F) For the evaluation of immunogenic effects CD-1 mice were injected i.p. with 100 μg of IgG1 isotype antibody (vehicle) or IL-17 neutralising antibodies (bimekizumab, secukinumab, MAB421 or Ab-IPL-IL-17™). In the selected time-point (2 h, 24 h, 72 h, 7 days, 14 days and 21 days) total IgG, IgG1, lymphocytes and platelets levels were determined by Elisa and haematological blood count test, respectively. Data are presented as mean±S.D. for n=5 mice per group. […]
(§5) For the neutralisation assay, CD-1 mice (n=5 per group) were injected i.p. with 100 μg of IL-17 neutralising antibodies (bimekizumab, secukinumab, MAB317 or Ab-IPL-IL-17™) 30 min prior to an i.p. injection of 10 μg IL-17A or IL-17F (2057-IL, R&D System). 2 h after IL-17s administration, IL-17A and IL-17F levels were determined by Elisa. […] In a selected time-point of 2 h, 24 h, 72 h, 7 days, 14 days and 21 days total IgG and IgG1 levels were determined by Elisa. […]

[4] = molecular target: T2, IL-17F (Mus musculus, UniProt Q7TNI7); assay: In vivo neutralisation assay, IL-17F; settings: CD-1 mice, 100 μg antibody i.p. 30 min before 10 μg IL-17F i.p., 2 h
T2 construct: purchased R&D System 2057-IL
T2 sequence (Q7TNI7 29-161): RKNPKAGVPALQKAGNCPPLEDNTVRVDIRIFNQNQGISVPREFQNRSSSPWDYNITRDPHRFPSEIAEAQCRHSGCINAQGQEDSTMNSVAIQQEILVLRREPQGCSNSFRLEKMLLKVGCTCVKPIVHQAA
Method: as §4, §5

[5] = molecular target: T3, IL-17A/F heterodimer (Mus musculus, UniProt Q62386+Q7TNI7); assay: In vivo neutralisation assay, IL-17A/F heterodimer; settings: CD-1 mice, 100 μg antibody i.p. 30 min before 10 μg IL-17A/F i.p., 2 h
T3 sequence (Q62386 26-158): T1 sequence (Q62386 26-158)
T3 sequence (Q7TNI7 29-161): T2 sequence (Q7TNI7 29-161)
Method: as §4, §5

[6] = In vivo immunogenicity assay (total IgG, IgG1); design: species or system CD-1 mice; settings: 100 μg i.p., 2 h to 21 days, compared to reference and gold standard antibodies
Method: as §4, §5

[7] = test system: Monoarthritic mice (AIA); assay: AIA model (monoarthritis); assay type: in vivo, C57Bl/6J mice; settings: 50 μg i.p. at 24 h or 72 h post disease onset, vs infliximab
Method: Monoarthritic mice (AIA group) were therapeutically administered Ab-IPL-IL-17™ or infliximab (anti-TNF-α) on day 1 and 3. Joint inflammation was scored daily and expressed as (A) percentage of baseline joint thickness or (B) AUC. (A-B) Data are presented as mean±S.D. for n=6 mice per group. Statistical analysis was conducted by one or two-way ANOVA followed by Dunnett post-test. *P≤0.05, **p≤0.01 vs AIA group. (C) Human whole blood from IBD patients was treated with or without Ab-IPL-IL-17™ (10 μg/ml) for 4 h, after which serum IL-17 levels were assessed by Elisa assay. Data are median±interquartile ranges (min 25%, max 75%) for n=6 independent donors. Statistical analysis was conducted by one-way ANOVA followed by Bonferroni's for multiple comparisons. ^#P≤0.05 vs vehicle group.
Animal studies were regulated by the Animals (Scientific Procedures) Act 1986 of the United Kingdom and performed under appropriate Personal Project License. Approval was granted by the University of Birmingham's Animal Welfare and Ethical Review Body and all ethical guidelines were adhered to whilst carrying out this study. […] Joint thickness (mm) was measured by callipers daily for up to 7 days. Data are expressed as a percentage change from baseline measurement taken on day 21 or area under the curve (AUC).

B1: Ab17-IPL-1: monoclonal anti-interleukin-17A neutralizing antibody, heavy chain SEQ ID NO: 3, light chain SEQ ID NO: 5 (antibody)
heavy: EVILVESGGGLVKPGGSLKLSCAASGFTFSSYAMSWVRQTPEKRLEWVATITGGGTYIYYPDSVKGRFTISRDNAKNTLYLQMSSLRSEDTAMYFCARIYGRNYYFDYWGQGTTLTVSSAKTTPPSVYPLAPGSAAQTNSMVTLGCLVKGYFPEPVTVTWNSGSLSSGVHTFPAVLQSDLYTLSSSVTVPSSTWPSETVTCNVAHPASSTKVDKKIVPRDCGCKPCICTVPEVSSVFIFPPKPKDVLTITLTPKVTCVVVDISKDDPEVQFSWFVDDVEVHTAQTQPREEQFNSTFRSVSELPIMHQDWLNGKEFKCRVNSAAFPAPIEKTISKTKGRPKAPQVYTIPPPKEQMAKDKVSLTCMITDFFPEDITVEWQWNGQPAENYKNTQPIMDTDGSYFVYSKLNVQKSNWEAGNTFTCSVLHEGLHNHHTEKSLSHSPGK
light: QIVLTQSPAIMSASLGEEITLTCSANSSVTYMHWYQQKSGTSPKLLIYSTSNLASGVPSRFSGSGSGTFYSLTISSVEAEDAADYYCHQWSSYRTFGGGTKLEIQRADAAPTVSIFPPSSEQLTSGGASVVCFLNNFYPKDINVKWKIDGSERQNGVLNSWTDQDSKDSTYSMSSTLTLTKDEYERHNSYTCEATHKTSTSPIVKSFNRNEC
IL-6 production in the presence of antibody [1]: 2383.61 µg/mL | effect of antibody on IL-6 production [2]: No significant effects | neutralisation of IL-17A (serum level) [3]: able to neutralize | neutralisation of IL-17F (serum level) [4]: able to neutralize | neutralisation of IL-17A/F heterodimer (serum level) [5]: able to neutralize | immunogenicity [6]: minor immunogenicity | onset and progression of mouse pathology (joint thickness) [7]: able to ameliorate onset and progression of mouse pathology in a more extensive manner compared to gold standard antibody
